According to publication PMC10763179 (Open access Macedonian journal of medical sciences, 2023):

System: HL-60(TB)
Test: NCI60 screen
Format: cell-based, human
Conditions: Leukemia, single dose 8.3 μM

In the case of C=C1C(=O)O[C@@H]2[C@H]3C(C)=CC[C@@]34O[C@@]4(C)CC[C@@H]12 [Arglabin 6, arglabin], the “Growth of tumor cells, %” value is reported as 2.63%.
